First the molecules themselves.
T1: UNK ZnF1-3 (human, UniProt Q9C0B0 31-174)
T1 sequence: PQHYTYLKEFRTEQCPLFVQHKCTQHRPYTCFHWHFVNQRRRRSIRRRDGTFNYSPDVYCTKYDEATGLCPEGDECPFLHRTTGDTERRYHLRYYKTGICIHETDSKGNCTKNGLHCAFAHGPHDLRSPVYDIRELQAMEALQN

B1: chr1:23395093:23395094:+_ENSG00000004487_ENST00000356634|perfect_dup|motif|central (ssRNA)
RNA: GGGAGUUCUACAGUCCGACGAUCUGCCUGGCCAAGGGAUACAGGUUUAUUAUUGAGGACGUUGAAGUCUAACUGGUGACGGAGGUAAGAAGUGGCUUCUAGCAACCGGUUAAAUUCUUGUUCUACCAUUUCAUCUUUUUCUUUCAACAGAGGAUUGAGCAUCA
B2: chr3:100860513:100860514:-_ENSMUSG00000027864_ENSMUST00000102694|mus_hu|FALSE|FALSE (ssRNA)
RNA: GGGAGUUCUACAGUCCGACGAUCGAUGAGAACAGAGUAGCGUGGCGACUUAAUAUUCUUGGAAGAUACUUUGCAAGUCAUCUCAAAUGUAUUUCCGGCAGCAAAGAAAGGCUUUGGCUGCCUCGCCUUCACCACAAGCACGGACAACAGAGGAUUGAGCAUCA
B3: chr1:244855233:244855234:+_ENSG00000121644_ENST00000302550|hu_mus|FALSE|FALSE (ssRNA)
RNA: GGGAGUUCUACAGUCCGACGAUCCAUCAGAUGGUAGGCGUUGCCCUUAUACUCUUUCCCCAGUUCUUCUACAAUUUUCUCUAUAUCAUCUUCUAGAAAGUCCGUACUUCCUAGAACAACAGCUUCUUUAAAUUUAAAUGUUUCCAACAGAGGAUUGAGCAUCA
B4: 20112859_20113845_501_CDS_ENSG00000099901_ENST00000331821|human|control|control (ssRNA)
RNA: GGGAGUUCUACAGUCCGACGAUCUGUUUUGAAUUUCUGUGCAUUCUCAGCAUUCAGGAAGCGGAUGGCCAGCAGCUCUGGCUUGGGGCACUCGUCGGCGAAGUCAGCGUGGGUGUUCCAGACCCAGGCACGGUCGCUACCUGCCAACAGAGGAUUGAGCAUCA
B5: chr10:90581586:90581587:-_ENSMUSG00000061904_ENSMUST00000076694|mus_mus|motif|central (ssRNA)
RNA: GGGAGUUCUACAGUCCGACGAUCAGCUUCCAUAGGAGCCAGGGCAAUGUCAGCGAAGAAUUCAGCACUGGCAGAAGAAGCGGAAUACAGUGAUGUGCGCCACAGGUAGGUGUUUUCCUCACCAAGUAUGUUGCUAUAUAAGGCCAACAGAGGAUUGAGCAUCA
B6: chr3:102851058:102851059:+_ENSMUSG00000068823_ENSMUST00000029446|mus_mus|FALSE|FALSE (ssRNA)
RNA: GGGAGUUCUACAGUCCGACGAUCGCCAUCUUCUGCCUCCUUGUCUUUGCCUUUAUUUGGGCUUGUAGUUUUAGGAUUGGAAAAAGUGGCUUCUUUUUCUACGGUGCCCAGAAAACGAUGAUCUGAAUGGGAAUGGAAUGAAACCAACAGAGGAUUGAGCAUCA

The list shows a part of the results.

The test has as its target T1, UNK ZnF1-3. Description: nsRBNS (natural sequence RNA bind-n-seq); RBNS binding buffer (assumed for nsRBNS): 25 mM Tris pH 7.5, 150 mM KCl, 3 mM MgCl2, 0.01% Triton X-100, 500 ug/ml BSA, 20 U/ml SUPERase-In, 4 C; UNK is unkempt and MSI1 is Musashi-1; names of the RNAs are library labels; protein concentration not given here; high values mean tight binding.
Consider B1, for which the binding signal worked out at 0.618 enrichment R. The molecule B2 showed a binding signal of 0.94 enrichment R. In turn, B3 gave a binding signal of 1.39 enrichment R.

Molecule B4 displayed a binding signal of 0.856 enrichment R.

B5 had a binding signal of 2.48 enrichment R. Turning to B6, the binding signal came to 0.901 enrichment R.
